Assay results taken from PubChem BioAssay AID686979 (National Center for Advancing Translational Sciences (NCATS), 2013).
The whole screen tested about 420,000 compounds, of which about 50,000 (12%) were called active. The shares of active, inactive and inconclusive entries below differ from those in the screen. Calls follow the shape of the dose curve; as a rule, active = well fitted inhibition curve with a large enough effect; inconclusive = small, poorly fitted or top-dose-only effect; inactive = flat fitted curve, though single readings scatter. Potencies of inconclusive entries are left out as doubtful fits.

Test: qHTS for Inhibitors of human tyrosyl-DNA phosphodiesterase 1 (TDP1): qHTS in cells in presence of CPT; also: nearly all actives have a fitted effect of over 55% in size
Conditions: chicken DT40 Tdp1-/-;hTDP1 cells + 20 nM CPT, ATP luminescence, 48 h; activity change, negative = growth inhibition: at 46.2 µM (top of the series) unless noted
How it was run: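 Chicken DT40 Tdp1-/- cells stably complemented with human TDP1 were seeded at 400 cells/well in medium containing 20 nM camptothecin, exposed to pin-transferred compounds, and grown at 37 °C for at least 48 hr. Viability was read as ATP luminescence.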
% is scaled to controls: 0 for no effect and ±100 for the full control effect; potency is read from the fitted curve at half-maximal effect; tags tell the direction and shape of the fitted curve.

Structure (SMILES)	Potency	activity change, negative = growth inhibition
CC(=O)Nc1ccc(NC(=O)C(=O)N/N=C/c2cccnc2)cc1	inactive	
O=c1[nH]c(SCC2CCCCO2)nc2ccccc12 (stereo unspecified)	inconclusive [inhibitor, single point]	
CCOc1ccccc1N1CCN(C2=C(NS(=O)(=O)c3cccs3)C(=O)c3ccccc3C2=O)CC1	inconclusive [inhibitor, single point]	
CC(=O)N1CCOc2cc(S(=O)(=O)NCc3ccccc3Cl)c(Cl)cc21	inconclusive [inhibitor, single point]	
CCC(C)(C)c1nnc(NC(=O)c2ccc([N+](=O)[O-])cc2)s1	inactive	
CCc1cc(=O)oc2c3c(cc(OCC(=O)NCCCOC)c12)OC(C)(C)CC3	inconclusive [inhibitor, single point]	
CCC1CCc2sc(C(=O)NNC(=S)NCC3CCCO3)cc2C1 (stereo unspecified)	inconclusive [inhibitor, single point]	
CCOC(=O)c1[nH]c2c(c1Cc1ccccc1)C(=O)CC(c1ccccc1)C2 (stereo unspecified)	active: 18.4 µM	
N=c1n(Cc2ccccc2)c2ccccc2n1Cc1ccccc1	active: 18.4 µM	
CCOC(=O)C1=CC[C@@H](c2cccc(C)c2)N(S(=O)(=O)c2ccc(C)cc2)[C@H]1C(=O)OCC	active: 14.6 µM	
O=C1NC(c2ccccc2)=C(c2ccc3ccccc3n2)C(c2ccncc2)N1 (stereo unspecified)	inactive	
CC1CCN(CCNC(=S)Nc2ccc(Cl)cc2)CC1		inconclusive: -8.99% [inhibitor]
COc1ccc2sc(-c3ccc(N(C)C)cc3)c(C#Cc3cncn3C)c2c1	active: 5.8 µM	
COc1ccc(Cl)cc1NC(=O)CCN1C(=O)C2C3CCC(C3)C2C1=O (stereo unspecified)	inactive	
CCOC(=O)c1ccc(NC(=O)NC2=NCCS2)cc1	inactive	
Cc1cccc(CNc2ncncc2-c2ccc3c(c2)OCO3)c1	inconclusive [inhibitor, single point]	
COc1cccc(-c2nc(CS(=O)(=O)CC(=O)Nc3ccccc3Cl)c(C)o2)c1	inconclusive [inhibitor, single point]	
O=C(C1=C[C@H](c2coc3ccccc3c2=O)C[C@H](OCc2ccc(CO)cc2)O1)N1CCN(Cc2ccc3c(c2)OCO3)CC1	active: 7.31 µM	
COc1ccc(NC(=O)CN2C(=O)NC(c3ccccc3)(c3ccccc3)C2=O)cc1	inconclusive [inhibitor, single point]	
Cc1ccc(N2C(=O)c3cccc4c(N)ccc(c34)C2=O)c2cccnc12	active: 0.0082 µM	
COc1ccc(C(=O)Nc2ccc3c(c2)n(C)c(=O)n3C)cc1OC	inactive	
